# Variants at the background level are over-represented here.
# B1: TPR 5TU (parent)
# chain: GGAUCUUCUCGAUCUAACAAAAAAGACAAAUCUGCCACAAAGCUUGAGAGCAUCUUCGGAUGCAGAGGCGGCAGCCUUCGGUGGCGCGAUAGCGCCAACGUUCUCAACUAUGACACGCAAAACGCGUGCUCCGUUGAAUGGAGUUUAUCAUG
# Variants of: B1
# Test: polymerase ribozyme fitness, log enrichment relative to wild type (log ratio); higher = more active; in vitro selection for triplet polymerase activity
# Method in brief: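 In triplicate, a single round of in vitro selection was run on each mutant library, PCR-built and transcribed, covering one subunit of a heterodimeric triplet polymerase ribozyme. Frozen incubation at −7 °C followed annealing with a biotinylated primer, partner subunit and triplets, and extended constructs were then gel-excised, streptavidin-captured and taken through RT-PCR. Fitness is the logarithm of genotype enrichment over wild-type enrichment, from inverse-variance-weighted replicate averages of Illumina-sequenced inputs and outputs. […] only genotypes with ≥10 input reads and ≥1 read per output were kept.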
row,Variant,polymerase ribozyme fitness (log ratio)
1,U13A C51U U82A A91U G100A G143A,≤ -4.2
2,A12U C14U A23G U56A C87U A142G U144A,≤ -4.2
3,A12G A30U C43A U90G G124C U144A,≤ -4.2
4,C14G G71C G80A C85G G94U C116U A120G,≤ -4.2
5,C14G U56A C63U U82A G88A,≤ -4.2
6,U13C A17G A30U A41C U77G U90C U151G,≤ -4.2
7,C14A G70C C87G,≤ -4.2
8,U13C U31G C32G G34A A39U G68U C118U,≤ -4.2
9,A12G C18U G67U G70C G94U U102A C114A A137C G140A A150G,≤ -4.2
10,U13C G65C U82A G117U,≤ -4.2
11,C14G A52G U55A C85A G133U,≤ -4.2
12,A12U A16C C54A C93G,≤ -4.2
13,C14G A17C C43G C85U A91U U151G,≤ -4.2
14,U13G A20G C57U C87G U151G,≤ -4.2
15,A12C U53A C57U U78G G117C C149A,≤ -4.2
16,A12G A17U G58C C85U G100U,≤ -4.2
17,U13G A37U U56A C93A A113G U145G,≤ -4.2
18,U13A A20G A21G G34A A52G,≤ -4.2
19,A12G C57G C76U U77G G86A C93U A115U,≤ -4.2
20,A12G G67A G86A G140C,≤ -4.2
21,A12U G34A C57G C69A G88U,≤ -4.2

row,Variant,polymerase ribozyme fitness (log ratio)
1,U13G G70A A137G,≤ -4.2
2,A12U U13A U15A C27A A40G A49C C116A,≤ -4.2
3,A12G A21U U53G C87G G140C U146A,≤ -4.2
4,A12U C27G C75A C79G G92U A121C C131G A147C,≤ -4.2
5,A12G U13A C14U U15C A41G G65U A73U C87A C116G C132G,≤ -4.2
6,C14G A24G U53A C85A U90A,≤ -4.2
7,U13G A52G G71U G84C U148C,≤ -4.2
8,A12U A39G C51U C75U C79A G94A,≤ -4.2
9,C14G C51U C72G C85G C132U,≤ -4.2
10,A12C G34U U55G G68A G86A,≤ -4.2
11,U13A A16G G86U C99U G152A,≤ -4.2
12,A12G G67A U90A A106G A113U U134A,≤ -4.2
13,U13C G84U C96U G141U C149G,≤ -4.2
14,A12U A24U A26G G65A G92U G143A,≤ -4.2
15,A12G A30C C38A A91U,≤ -4.2
16,U13C A19C G50A U56A C87A,≤ -4.2
17,C14G C32G G50U G92C U104G G117U,≤ -4.2
18,C14G A41G G80U A98C C99U C103G,≤ -4.2
19,U13G C14A A19U A22U C87G C114U,≤ -4.2
20,C14G A41U G62A U78A C99G,≤ -4.2
21,U13A A28U C43U U90C G92U C93U G141U,≤ -4.2

row,Variant,polymerase ribozyme fitness (log ratio)
1,A12G A21G A49G U55A C72A U77C G140U,≤ -4.2
2,A12C C14G U33C U45G G92U A122C,≤ -4.2
3,U13C C36A C95G G141A U146C,≤ -4.2
4,U13C A26U C72A U101A C129U,≤ -4.2
5,C14U A20U G48A C72U C87U,≤ -4.2
6,A12U C35G G46A C57G A60C C95U A119U,≤ -4.2
7,C14U A16C A22U C99A G143C,≤ -4.2
8,C14G G25U U55G C93G C105U,≤ -4.2
9,A12C A24C U55G C85G G100A C132G,≤ -4.2
10,A12U U53A C57U C85A G143U,≤ -4.2
11,A12U C72G G84A A91C G94C U111C,≤ -4.2
12,U13G A26U G46A U55A C57U G58A C96U G136U,≤ -4.2
13,U13G U56A C75U C95A C96G U104G G133U,≤ -4.2
14,A12G A19C A29U U61A G84A,≤ -4.2
15,C14G A49C,≤ -4.2
16,U13G A47C C96U C131A,≤ -4.2
17,U13C A47C C96A C149G,≤ -4.2
18,C14A C36A U90G G100A A122C,≤ -4.2
19,A12U A28C C93A C103A A147C U148G A150C,≤ -4.2
20,C14U A21C A26G U56A C87U U102A,≤ -4.2
21,C14G U45G U53G G74A G92A,≤ -4.2

row,Variant,polymerase ribozyme fitness (log ratio)
1,A12G C27U A28C G50C A66U G86C,≤ -4.2
2,C14A A52C C69U,≤ -4.2
3,U13G A47U C57U G86U C95G C103G C118U C123G G128A,≤ -4.2
4,A12G U13C U61A C75U A122U U151G,≤ -4.2
5,C14G G59A G136U,≤ -4.2
6,A12C C87A,≤ -4.2
7,A12U A22G A52G G94U U127G C149A,≤ -4.2
8,C14G A29U C76G U148A,≤ -4.2
9,U13A C27A A52G G136U,≤ -4.2
10,C14A C69U C85U G100C G117C,≤ -4.2
11,U13A C87A,≤ -4.2
12,C14A A49C G80A G88C,≤ -4.2
13,U13G A21C G48A U55C G81A G92C C114U G126A,≤ -4.2
14,C14G A20U A39U G92U G133C U134C C149G,≤ -4.2
15,C14G C87U A91G U102C G141C,≤ -4.2
16,A12U A52G U56G A73G G84A A107U A113C,≤ -4.2
17,C14A A28U U33A C38G C103G C105U,≤ -4.2
18,U13C A29C G48A A49G,≤ -4.2
19,A12U A26C A49G C93G C95U A113G,≤ -4.2
20,A12C A17U U55A G83U U101G C116G,≤ -4.2
21,C14A C51A U55A A97C C114A A115U C116G U145G,≤ -4.2
